# PMC4336329 (PLoS ONE, 2015)
# Among all 310,000 compounds or so, about 14,000 (4.5%) showed an effect of 50% or more. Effects have a minus sign here. The list shows a part of the results.
# Target: human ether-à-go-go-related gene (hERG) potassium channel (human, UniProt Q12809)
# Test: primary screen, population patch clamp on CHO cells stably expressing hERG
# 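Note: peak tail current of the secondary pulse compared with the same well before compound.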
# Sequence of human ether-à-go-go-related gene (hERG) potassium channel (Q12809 whole entry, looked up): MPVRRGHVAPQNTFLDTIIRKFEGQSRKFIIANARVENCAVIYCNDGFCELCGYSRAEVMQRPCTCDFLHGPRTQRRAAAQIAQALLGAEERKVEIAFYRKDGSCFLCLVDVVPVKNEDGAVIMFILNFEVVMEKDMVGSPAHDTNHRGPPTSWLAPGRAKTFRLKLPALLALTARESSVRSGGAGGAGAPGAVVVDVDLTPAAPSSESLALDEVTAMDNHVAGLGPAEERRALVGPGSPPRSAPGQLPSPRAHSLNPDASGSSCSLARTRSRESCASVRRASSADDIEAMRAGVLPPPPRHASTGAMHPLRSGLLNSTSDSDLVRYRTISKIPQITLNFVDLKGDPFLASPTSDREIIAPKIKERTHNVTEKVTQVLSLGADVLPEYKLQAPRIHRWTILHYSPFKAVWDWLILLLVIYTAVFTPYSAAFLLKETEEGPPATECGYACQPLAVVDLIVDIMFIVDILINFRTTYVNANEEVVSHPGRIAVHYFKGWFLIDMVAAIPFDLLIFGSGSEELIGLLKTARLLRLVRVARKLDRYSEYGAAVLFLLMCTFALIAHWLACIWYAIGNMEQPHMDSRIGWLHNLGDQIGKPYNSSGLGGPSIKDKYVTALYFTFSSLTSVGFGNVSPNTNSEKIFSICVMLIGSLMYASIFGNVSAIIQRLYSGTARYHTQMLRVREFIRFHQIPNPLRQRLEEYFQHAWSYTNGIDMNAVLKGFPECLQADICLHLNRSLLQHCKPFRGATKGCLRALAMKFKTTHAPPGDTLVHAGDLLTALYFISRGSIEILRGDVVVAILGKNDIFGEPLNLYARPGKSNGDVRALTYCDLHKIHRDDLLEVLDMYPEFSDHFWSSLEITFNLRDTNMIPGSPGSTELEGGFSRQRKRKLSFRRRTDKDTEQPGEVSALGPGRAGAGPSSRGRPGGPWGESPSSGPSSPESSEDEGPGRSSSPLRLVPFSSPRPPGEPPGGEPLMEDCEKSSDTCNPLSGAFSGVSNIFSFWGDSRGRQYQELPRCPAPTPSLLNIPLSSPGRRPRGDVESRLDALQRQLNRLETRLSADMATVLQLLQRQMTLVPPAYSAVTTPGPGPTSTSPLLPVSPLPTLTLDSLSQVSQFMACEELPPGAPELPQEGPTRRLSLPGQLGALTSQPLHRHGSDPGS
row,SMILES,"hERG current change (%, negative = inhibition) at 10uM [%]"
1,CCN(CC(=O)N1CCN(c2ccccc2)CC1)S(=O)(=O)c1ccc(C)cc1,-12.8
2,CN(C)c1nc2c(c(=O)[nH]c(=O)n2C)n1Cc1ccccc1Br,-0.479
3,CCCCn1c(SCC(=O)Nc2nnc(C(C)C)s2)nc2c1c(=O)n(C)c(=O)n2C,-0.729
4,Cc1cc(Nc2ccccc2)n(CCC#N)n1,9.52
5,CC(Oc1ccc(Cl)cc1Cl)C(=O)N(C)c1ccccc1 (stereo not drawn),-11.4
6,COc1ccc(Cl)cc1NC(=O)C/C(C)=N/NC(=O)CC#N,-1.42
7,COc1ccc(-c2cc(C(=O)c3c(N)n(C)c(=O)n(C)c3=O)c3ccccc3n2)cc1OC,3.71
8,CCN(CC)C(=O)NC(c1ccc(C)c(F)c1)C(Cl)(Cl)Cl (stereo not drawn),9.8
9,COc1ccccc1C(CCN(Cc1ccccc1)C(C)=O)c1ccco1 (stereo not drawn),-25.5
10,Cn1c(=O)c2c(O)c(Cc3ccccc3)c(=O)n(C)c2n(C)c1=O,-3.06
11,Cc1cc(C)cc(NC(=O)C(c2ccccc2)N2CCN(CC(=O)NC3CC3)CC2)c1 (stereo not drawn),-28.3
12,COc1ccc(NC(=O)NCc2cccnc2)cc1,-1.56
13,CN(CC(=O)Nc1ccccc1C(F)(F)F)C(=O)Cn1c(=O)oc2ccccc21,7.61
14,Cc1ccc(C)c(SCC(=O)NCc2ccco2)c1,2.13
15,CCOC(=O)C1=C(c2ccccc2)NC(=S)NC1c1cccc([N+](=O)[O-])c1 (stereo not drawn),12.8
16,CC(c1ccccn1)N(C)C(=O)c1ccc2nc(Cc3ccccc3F)oc2c1 (stereo not drawn),1.56
17,COc1cccc(OC)c1C(=O)Nc1cc(C)on1,7.22
18,Cc1nn(-c2ccc(F)cc2)c(Cl)c1C(=O)OC(C)C(=O)N(C)C1CCCCC1 (stereo not drawn),-59
19,Cc1cc(NC(=O)CCC(=O)N(CC(=O)NC2CCCC2)c2ccc(C)c(F)c2)no1,4.13
20,COc1ccc(CCNC(=O)c2cccs2)cc1OC,30.7
21,COc1cccc(CN2CCNC(=O)C2CC(=O)N(C)CC2CCOCC2)c1 (stereo not drawn),15
22,Fc1ccc(CN2CCN(c3ncnc4scc(-c5ccccc5)c34)CC2)cc1,-39.9
23,CCn1c(SCC(=O)Nc2cc(Cl)ccc2OC)nnc1C1CC1,-5.66

row,SMILES,"hERG current change (%, negative = inhibition) at 10uM [%]"
1,COC(=O)c1ccc(Sc2ccc(Cl)cc2)c(N)c1,-2.44
2,CC1=CC(C)(C)N(C(=O)CSc2nnc(-c3ccccc3)o2)c2ccc(C)cc21,6.56
3,O=C1CC(c2ccco2)CC(O)=C1C=NCCN1CCN(C(=S)Nc2ccccc2)CC1 (stereo not drawn),-54.1
4,O=C(Oc1ccc(Cl)cc1)c1ccc(COC(=O)c2cnccn2)cc1,14.9
5,Cc1ccc(NC(=O)c2cc(-c3ccc4c(c3)OCO4)on2)cc1C,8.36
6,CCOc1ccccc1NC(=O)C(Sc1nnc2ccccn12)c1ccccc1 (stereo not drawn),-12.5
7,O=C(Nc1cccnc1)c1cccc(-c2cc3ccccc3oc2=O)c1,14.5
8,Cn1c(=O)c2c(ncn2CC(=O)OCC(=O)Nc2ccccc2)n(C)c1=O,1.9
9,CCn1c2ccccc2c2nnc(SCC(=O)N(C)C3CCS(=O)(=O)C3)nc21 (stereo not drawn),-21
10,CCNC(=S)N/N=C/c1ccc(OCc2ccc(C(=O)OC)cc2)cc1,-10.3
11,COCc1c(C(=O)NCC2COc3ccccc3O2)oc2ccccc12 (stereo not drawn),-30.1
12,COc1ccccc1NC(=O)N(C1CCCC1)C1CCN(C(C)=O)CC1,-11.9
13,COc1cc2c(cc1C1C(C#N)=C(N)OC3=C1C(=O)CC(C)(C)C3)OCO2 (stereo not drawn),-9.92
14,CCOc1ccc(S(=O)(=O)NCCC(=O)N(C)CC(=O)Nc2ccc(OC)cc2)cc1,7.12
15,O=C(CCCn1c(SCc2cccc(F)c2)nc2ccccc2c1=O)NCC1CCCO1 (stereo not drawn),8.35
16,Cc1cc2cc(CNC(=O)c3cccc([N+](=O)[O-])c3)ccc2n1C,6.74
17,Cc1cc(/C=C2/C(=O)NC(=O)N(Cc3ccco3)C2=O)c(C)n1-c1ccc(C(=O)O)cc1,10.3
18,CCn1cc(C(=O)O)c(=O)c2cc(F)c(N/N=C/c3ccccc3[N+](=O)[O-])cc21,-51.2
19,O=C(O)CN=C1NC2(CCCCC2)Cc2ccccc21,2.54
20,O=C(COc1ccc(Br)cc1CO)Nc1ccccc1F,-2.36
21,O=C(CSc1nc(C2CCCCC2)nc2ccccc12)NCc1ccco1,-1.06
22,Cc1cccc(Cn2ncc(Cl)c(Cl)c2=O)c1,3.59
